For one experiment, the target named is T1, SSDP-FLAG (Drosophila) (UniProt Q9VEB9).
T1 sequence: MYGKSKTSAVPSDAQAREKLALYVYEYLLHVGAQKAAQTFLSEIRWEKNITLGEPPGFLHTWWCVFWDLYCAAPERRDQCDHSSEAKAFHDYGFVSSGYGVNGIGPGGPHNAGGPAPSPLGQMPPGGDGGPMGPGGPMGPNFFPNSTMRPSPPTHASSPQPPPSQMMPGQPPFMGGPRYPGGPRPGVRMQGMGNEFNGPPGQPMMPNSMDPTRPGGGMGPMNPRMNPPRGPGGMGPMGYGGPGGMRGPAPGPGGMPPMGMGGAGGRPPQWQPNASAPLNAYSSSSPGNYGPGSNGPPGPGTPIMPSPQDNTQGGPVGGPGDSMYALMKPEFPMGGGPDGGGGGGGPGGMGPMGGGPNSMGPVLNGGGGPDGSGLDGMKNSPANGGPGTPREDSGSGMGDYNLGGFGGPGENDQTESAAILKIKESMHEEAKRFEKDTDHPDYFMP
Nature of the experiment: co-IP; SSDP-FLAG coexpressed with WT or mutant SSDP-V5 in HEK293T LDB1/LDB2 DKO cells.

For experiment [1], the target named is T2, Chip-V5FLAG M402E (Drosophila) (UniProt Q7KVG9).
T2 sequence: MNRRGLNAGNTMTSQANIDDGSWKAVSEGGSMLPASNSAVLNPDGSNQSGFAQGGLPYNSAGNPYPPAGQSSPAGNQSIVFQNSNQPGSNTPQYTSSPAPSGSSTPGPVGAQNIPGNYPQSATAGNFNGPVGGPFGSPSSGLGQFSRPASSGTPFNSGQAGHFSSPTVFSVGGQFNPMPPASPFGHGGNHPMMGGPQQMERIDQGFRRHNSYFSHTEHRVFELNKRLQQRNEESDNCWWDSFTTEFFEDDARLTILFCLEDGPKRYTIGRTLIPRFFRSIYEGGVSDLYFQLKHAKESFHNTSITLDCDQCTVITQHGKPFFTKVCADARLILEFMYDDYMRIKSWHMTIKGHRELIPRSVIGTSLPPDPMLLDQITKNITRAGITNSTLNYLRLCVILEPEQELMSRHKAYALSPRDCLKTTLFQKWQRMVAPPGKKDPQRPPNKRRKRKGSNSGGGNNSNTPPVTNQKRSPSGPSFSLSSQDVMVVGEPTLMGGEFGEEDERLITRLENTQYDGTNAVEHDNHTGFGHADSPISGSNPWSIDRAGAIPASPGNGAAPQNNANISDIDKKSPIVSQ
Nature of the experiment: co-IP; Chip-V5FLAG (WT or mutant) coexpressed with SSDP-V5 (WT or mutant) in HEK293T cells.

For experiment [2], the target named is T3, Chip-V5FLAG M406R (Drosophila) (UniProt Q7KVG9).
T3 sequence: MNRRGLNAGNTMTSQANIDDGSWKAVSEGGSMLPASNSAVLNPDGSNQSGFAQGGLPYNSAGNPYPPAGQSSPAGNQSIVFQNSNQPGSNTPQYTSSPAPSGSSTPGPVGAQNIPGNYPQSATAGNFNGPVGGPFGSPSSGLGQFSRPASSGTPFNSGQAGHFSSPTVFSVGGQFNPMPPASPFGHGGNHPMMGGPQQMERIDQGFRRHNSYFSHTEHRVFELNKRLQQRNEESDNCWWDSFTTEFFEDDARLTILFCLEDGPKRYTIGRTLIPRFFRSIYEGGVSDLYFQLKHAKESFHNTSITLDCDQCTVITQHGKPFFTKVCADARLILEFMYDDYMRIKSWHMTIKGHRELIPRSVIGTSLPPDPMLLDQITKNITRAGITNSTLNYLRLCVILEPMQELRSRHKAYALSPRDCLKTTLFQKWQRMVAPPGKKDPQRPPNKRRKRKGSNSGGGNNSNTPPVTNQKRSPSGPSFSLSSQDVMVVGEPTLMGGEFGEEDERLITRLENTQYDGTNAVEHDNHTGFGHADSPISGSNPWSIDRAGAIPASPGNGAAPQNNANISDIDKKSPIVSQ
Described as above.

The target in experiment [3] is T4, Chip-V5FLAG L405D (Drosophila) (UniProt Q7KVG9).
T4 sequence: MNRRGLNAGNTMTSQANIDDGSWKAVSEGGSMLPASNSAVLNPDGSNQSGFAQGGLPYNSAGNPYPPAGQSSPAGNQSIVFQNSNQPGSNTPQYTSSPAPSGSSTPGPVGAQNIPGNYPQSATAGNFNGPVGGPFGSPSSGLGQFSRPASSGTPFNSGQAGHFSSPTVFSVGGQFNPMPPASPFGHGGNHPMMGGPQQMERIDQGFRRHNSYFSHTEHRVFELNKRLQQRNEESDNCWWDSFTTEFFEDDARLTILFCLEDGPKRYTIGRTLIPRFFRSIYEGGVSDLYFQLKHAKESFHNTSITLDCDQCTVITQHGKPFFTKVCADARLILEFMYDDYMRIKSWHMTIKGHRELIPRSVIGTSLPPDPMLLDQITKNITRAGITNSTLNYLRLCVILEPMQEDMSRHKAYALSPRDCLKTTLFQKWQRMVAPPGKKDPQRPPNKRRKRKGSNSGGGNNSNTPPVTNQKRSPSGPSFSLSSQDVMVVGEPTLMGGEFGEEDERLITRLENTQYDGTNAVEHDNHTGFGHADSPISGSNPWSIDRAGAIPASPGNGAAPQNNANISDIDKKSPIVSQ
The description is as above.

The next experiment addresses T5, Chip-V5FLAG (Drosophila) (UniProt Q7KVG9).
T5 sequence: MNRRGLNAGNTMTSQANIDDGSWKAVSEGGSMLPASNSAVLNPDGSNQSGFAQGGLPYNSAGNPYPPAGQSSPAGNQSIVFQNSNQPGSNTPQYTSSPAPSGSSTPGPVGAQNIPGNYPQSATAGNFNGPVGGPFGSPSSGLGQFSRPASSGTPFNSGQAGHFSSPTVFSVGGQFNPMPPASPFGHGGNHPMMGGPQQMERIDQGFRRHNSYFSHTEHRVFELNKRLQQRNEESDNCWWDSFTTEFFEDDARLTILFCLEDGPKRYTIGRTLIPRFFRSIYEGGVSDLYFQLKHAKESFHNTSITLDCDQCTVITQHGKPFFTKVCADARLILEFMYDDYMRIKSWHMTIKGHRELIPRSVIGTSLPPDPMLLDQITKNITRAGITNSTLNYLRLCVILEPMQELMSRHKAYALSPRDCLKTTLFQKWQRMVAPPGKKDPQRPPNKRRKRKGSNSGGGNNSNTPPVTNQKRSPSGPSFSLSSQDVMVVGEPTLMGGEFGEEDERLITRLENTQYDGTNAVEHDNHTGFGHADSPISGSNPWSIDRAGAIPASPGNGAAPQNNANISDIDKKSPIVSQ
The description is as above.

Experiment [4] addresses T6, MBP-LCCD_(Chip) Mα6 (M402E L405D M406R) (Drosophila) (UniProt Q7KVG9).
T6 sequence: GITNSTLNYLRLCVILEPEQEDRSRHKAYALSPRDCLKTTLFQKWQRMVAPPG
The experiment can be described thus: SEC-MALS; MBP-LCCD_(Chip) (WT or Mα6) coexpressed with Lip-SSDP_(1–92) (WT, V65K, Mα3 or ML), purified; Superdex-200 10/300, 2 mg/mL, PBS, 1 mM DTT; PAGE of SEC fractions; both purified. For orientation: SEC sorts molecules by how far they enter the pores of the column.

The target in experiment [5] is T7, SSDP-V5 F58E (Drosophila) (UniProt Q9VEB9).
T7 sequence: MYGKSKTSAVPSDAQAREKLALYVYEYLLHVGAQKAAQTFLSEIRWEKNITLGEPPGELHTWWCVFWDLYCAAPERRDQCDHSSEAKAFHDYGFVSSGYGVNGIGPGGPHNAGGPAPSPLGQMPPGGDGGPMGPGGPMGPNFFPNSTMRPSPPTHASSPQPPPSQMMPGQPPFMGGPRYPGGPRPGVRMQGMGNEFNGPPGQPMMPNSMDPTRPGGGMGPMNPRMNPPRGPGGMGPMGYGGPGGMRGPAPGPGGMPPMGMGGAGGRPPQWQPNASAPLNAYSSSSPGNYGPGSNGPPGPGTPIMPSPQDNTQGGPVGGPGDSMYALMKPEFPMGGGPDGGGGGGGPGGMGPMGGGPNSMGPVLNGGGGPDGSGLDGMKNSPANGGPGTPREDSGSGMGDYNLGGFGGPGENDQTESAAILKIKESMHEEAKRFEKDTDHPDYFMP
The experiment can be described thus: co-IP; Drosophila Pygo coexpressed with Chip and SSDP (WT or mutants) in HEK293T cells.

Results are given in words; binding and its absence hold for the method and conditions named. For some of these results: In cells and extracts the contact can be indirect. Some results given as binding are weak or reduced against the parent protein; the word gives no strength. Sequences can lack the tags named with a protein.

B1: SSDP-V5 (protein, UniProt Q9VEB9 1-445)
chain: MYGKSKTSAVPSDAQAREKLALYVYEYLLHVGAQKAAQTFLSEIRWEKNITLGEPPGFLHTWWCVFWDLYCAAPERRDQCDHSSEAKAFHDYGFVSSGYGVNGIGPGGPHNAGGPAPSPLGQMPPGGDGGPMGPGGPMGPNFFPNSTMRPSPPTHASSPQPPPSQMMPGQPPFMGGPRYPGGPRPGVRMQGMGNEFNGPPGQPMMPNSMDPTRPGGGMGPMNPRMNPPRGPGGMGPMGYGGPGGMRGPAPGPGGMPPMGMGGAGGRPPQWQPNASAPLNAYSSSSPGNYGPGSNGPPGPGTPIMPSPQDNTQGGPVGGPGDSMYALMKPEFPMGGGPDGGGGGGGPGGMGPMGGGPNSMGPVLNGGGGPDGSGLDGMKNSPANGGPGTPREDSGSGMGDYNLGGFGGPGENDQTESAAILKIKESMHEEAKRFEKDTDHPDYFMP
B1: the binding result with SSDP-FLAG (Drosophila) is “binds”; in experiment [1], “no binding”; in experiment [2] it was “no binding”; in experiment [3] it was “binds”; with Chip-V5FLAG (Drosophila), “binds”.

B2: Lip-SSDP_(1–92) (domain or fragment, Drosophila, UniProt Q9VEB9 1-92, looked up)
chain: MYGKSKTSAVPSDAQAREKLALYVYEYLLHVGAQKAAQTFLSEIRWEKNITLGEPPGFLHTWWCVFWDLYCAAPERRDQCDHSSEAKAFHDY
notes: Drosophila SSDP, residues 1-92; Obligate dimer; dimers and tetramers are seen by SEC-MALS; also called SSDP-N; WT Lip-SSDP_(1–92); source: E. coli BL21(DE3)-RIL, purified (Ni-NTA, gel filtration); alone or coexpressed with MBP-LCCD from a bicistronic vector
B2: the binding result in experiment [4] is on record as “no binding”.

B3: Drosophila Pygo (protein, UniProt Q9V9W8 1-815)
chain: MTHNLGMAPYRLPGPAGGLCPPDFKPPPPTDIISAPSNPKKRRKTSSAANSAAAVAAAAAAAAAANSMQQQQAPPTPQDLLPPPPMGGFGDTIIASNPFDDSPQVSAMSSSAAAAMAAMNQMGGGPGGGHFGGGGPGGHPHWEDRMGMGGGPPPPPHMHPHMHPHHPGGPMGHPHGPHPHMGGPPPMRGMSPMHPHQMGPGPGVGLPPHMNHGRPGGPGGPGGPVPMGSPMGGIAGMGGMSPMGGMGGPSISPHHMGMGGLSPMGGGPNGPNPRAMQGSPMGGPGQNSPMNSLPMGSPMGNPIGSPLGPPSGPGPGNPGNTGGPQQQQQQPPQPPMNNGQMGPPPLHSPLGNGPTGHGSHMPGGPIPGPGPGPGGLVGPGGISPAHGNNPGGSGNNMLGGNPGGGNSNNNGSNTSNASNNNQNPHLSPAAGRLGVPTSMQSNGPSVSSVASSSVPSPATPTLTPTSTATSMSTSVPTSSPAPPAMSPHHSLNSAGPSPGMPNSGPSPLQSPAGPNGPNNNNSNNNNGPMMGQMIPNAVPMQHQQHMGGGPPGHGPGPMPGMGMNQMLPPQQPSHLGPPHPNMMNHPHHPHHHPGGPPPHMMGGPGMHGGPAGMPPHMGGGPNPHMMGGPHGNAGPHMGHGHMGGVPGPGPGPGGMNGPPHPHMSPHHGHPHHHHNPMGGPGPNMFGGGGGGPMGPGGPMGNMGPMGGGPMGGPMGVGPKPMTMGGGKMYPPGQPMVFNPQNPNAPPIYPCGMCHKEVNDNDEAVFCESGCNFFFHRTCVGLTEAAFQMLNKEVFAEWCCDKCVSSKHIPMVKFKC
In the case of B3, the binding entry in experiment [5] was “no binding”.

The values above are taken from article PMC6800368, “Rotational symmetry of the structured Chip/LDB-SSDP core module of the Wnt enhanceosome” (Proceedings of the National Academy of Sciences of the …, 2019).
